# According to the supplement of paper PMC11417369:
# ± gives the standard deviation of the averaged measurements. The list shows a part of the results.
# Tested on: PfAP2-EXP AP2 domain (GST-tagged)
# Experiment: gcPBM binding intensity (ln(normalized median fluorescence intensity)); higher = stronger DNA binding
# Outline: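 Probes on an Agilent 4 × 180k array were primer-extended, double-stranded and 36 bp long, taken from intergenic genomic regions, with negative controls added. GST-tagged P. falciparum DNA-binding domains from E. coli, about 25 μg on average, were applied to the array for 1 h in 1× PBS containing 1% milk, 0.2 mg/ml BSA, 0.5% salmon testes DNA and 0.03% Triton X-100. Binding intensity, obtained after Alexa488 anti-GST antibody detection and a 488 nm scan, is the highest Masliner-normalised natural-log median intensity across replicate spots of either probe orientation.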
row,Sequence,gcPBM binding intensity (ln)
1,AAAAAAATTAAACACACACACACATATATATATATA [CACACA_site4718],10.1 ± 0.25
2,GAACAAAAGGAATGTTGTACATAAAAAATGAAAAAT [XGTACX_site3929],9.02 ± 0.36
3,ATATATATGTATATGTGTACTTATATTTGTCATTTT [XGTACX_site1317],8.46 ± 0.26
4,AACATATTAATGTACACACACCCACGCACAAACAAA [CACACA_site7320],9.04 ± 0.62
5,TGGTAATATCGATTCACACATATCAAAATAAAAAAA [CACACA_site4196],8.39 ± 0.38
6,TAGGAGAAAAAAAAAAGTACCCACAACTATTATACT [XGTACX_site8195],8.61 ± 0.54
7,TCCTAATGCTACCACACACACAAAAACAAATAATAA [CACACA_site2610],8.66 ± 0.52
8,AGTATTATATATATATGTACATAATATACATATATA [XGTACX_site8514],8.34 ± 0.33
9,TTATAAGATTTATGTACACACATATACACAGCTCTA [CACACA_site6481],8.38 ± 0.23
10,GTTATACGCATCAACACACACATACAACGTGGTGTA [CACACA_site1188],8.35 ± 0.34
11,ATGGAACTTAAAAATTGTACACATAAAATGGAGAAG [XGTACX_site1823],9.09 ± 0.39
12,TAATTAATTTACATTTTAATTTTATACAAAATTTAT [CACACA_negctrl_site830],8.43 ± 0.62
13,ACATATTTATATTCTACACACTTATACTATAATACA [CACACA_site7204],8.64 ± 0.37
14,TATTAAAATATTTATACACACATAATTTTGATAAAT [CACACA_site4486],8.19 ± 0.43
15,TGTCATTCCTCTTATTGTACAAAAATATTATAATAT [XGTACX_site1134],8.99 ± 0.61
16,GCTATAAATACAGACGCACACATATACATACAGATA [CACACA_site5778],8.68 ± 0.4
17,ATATACATAATATATAATATAAATATATATATGGAA [CACACA_negctrl_site906],8.12 ± 0.24
18,TGTTATTAGAAAAATGCACACCAAAAAAAAAAAAAA [CACACA_site8802],8.37 ± 0.54
19,AATATATATATTAAATGTACATTACATAATTATATA [XGTACX_site3450],8.54 ± 0.43

row,Sequence,gcPBM binding intensity (ln)
1,TTTTTTTTTTTAGACACATGCATTTTTATAATTTTC [TGCATGCA_site843],8.8 ± 0.39
2,TAAATGAAAATATGTACACACTTGAAAACTTTTATG [CACACA_site7388],8.57 ± 0.49
3,TGCAACAAAATAAACACACACACACTAGCACAAAAA [CACACA_site5805],8.75 ± 0.49
4,AATATTTTGATGTGTACACATTAATACAGTTTTACA [CACACA_site5711],8.79 ± 0.31
5,TATATATATTAACTTGTGCGCAAAAAGATATAATTT [GTGCAC_site9672],8.75 ± 0.3
6,AAGAAATAAAAAAAACGTACATATATACATACATAC [XGTACX_site3980],8.98 ± 0.23
7,TAGGATATTGAATAATGTACTTTATATATAATATAA [XGTACX_site7828],8.12 ± 0.28
8,ATATGTATGTATGTCTCAAAATTTCATATTATATTA [CACACA_negctrl_site784],8.22 ± 0.43
9,GTATATATGTATATGTGTACATATATTTTATAATAT [XGTACX_site5703],8.45 ± 0.12
10,AAAAACGAAAAAAATACACACCTGAAAAGATATGTA [CACACA_site4644],8.33 ± 0.51
11,TATATATAATATTATACACACATATCTGCATAATAT [CACACA_site4202],8.61 ± 0.33
12,GGAATAACCAGACACACACACACATATATATATATA [CACACA_site3541],10.1 ± 0.5
13,TGGAAAGTTATTAACACACACATATAAATATTTATA [CACACA_site6173],8.54 ± 0.35
14,AGATCATAATATTATACACACATTATATATATGTAA [CACACA_site8419],8.6 ± 0.5
15,AAGTACCATATAGGCACACATATATATATATATATA [CACACA_site3282],10.2 ± 0.34
16,AAAAACCATTCGCACACACACATAATCTATAATATA [CACACA_site6782],8.69 ± 0.43
17,TCCAATTCTTTATTTTGTACACATTATGTGCATATG [XGTACX_site6290],8.94 ± 0.36
18,TTTTCTTGTAGTATAACAAAATATAGTAATATATAT [GTGCAC_negctrl_site609],8.44 ± 0.46
19,GTTGTTATATAAAGGAGTACATAATAACACAAATAT [XGTACX_site615],8.96 ± 0.3

row,Sequence,gcPBM binding intensity (ln)
1,AATCCTTCATATGTAGTGCATATTAACAAAATAAAA [GTGCAC_site9500],8.7 ± 0.33
2,ATGAAATATTTATTTGTGCACTTAATTTGTTGGAAA,9.05 ± 0.16
3,CCATTTGGTATTATATGTACATATAATTTTTTTTTT [XGTACX_site157],8.63 ± 0.35
4,AAAAAAAAAAAAAAAACACACATTTATAGTATATAT [CACACA_site1194],8.5 ± 0.11
5,GATTTATTTCATATCACACATTTTGGCTATTTTGTG [CACACA_site5793],8.77 ± 0.43
6,AAAAAAAAAACACACACATGCACATCATATTATATA [TGCATGCA_site133],8.72 ± 0.54
7,TTTTTAGTAACATATAGTACATATATATATATATGT [XGTACX_site4780],8.54 ± 0.16
8,TTAATACAAATAAAAAGTACAAGTATCGAACTACTA [XGTACX_site6308],8.37 ± 0.37
9,ATAATATGAAACTCGTACGAGGTTGTCCCAAATATA [CACACA_negctrl_site1350],8.88 ± 0.46
10,TTATTTTTTCTTCAAATGTGAATTATTCATTTATTT [TGCATGCA_negctrl_site545],8.58 ± 0.47
11,TTTAAAGGTGATAAAACACACGATTTAGAAATGTAT [CACACA_site3161],8.59 ± 0.41
12,GATATGTAAATAATATGTACATATTTATATTGTATT [XGTACX_site4052],8.44 ± 0.29
13,ATATATTATCAACTTACACACAGAAAAATATAATAA [CACACA_site293],8.56 ± 0.45
14,AAAAAGAATGTGAACACACACATTGAATATAATTTA [CACACA_site1262],8.28 ± 0.2
15,GATATTTTTATTTGTTGTACTTAAGATAATAAATGA [XGTACX_site2891],8.68 ± 0.28
16,AATATATTAAAAAAGCGTACAAGAATTGGAAAATGG [XGTACX_site6576],9.12 ± 0.36
17,AAAAAAAAAAAAATACGTACACAAAAAATTGCAAAG [XGTACX_site5663],8.83 ± 0.49
18,ATAAATGTGTTTATTTAACACACAAAAGAAAAAATA [CACACA_site8589],8.59 ± 0.73
19,TGTATAACCTGTGTTACACACATTAAAATTTATATA [CACACA_site4449],8.3 ± 0.4
